Source: PubChem BioAssay AID493208 (National Center for Advancing Translational Sciences (NCATS), 2011)
In all, about 44,000 compounds went through this assay and about 340 (0.77%) were called active. Not shown: some 5% with an inconclusive outcome. Calls follow the shape of the dose curve; as a rule, active = well fitted inhibition curve with a large enough effect; inconclusive = small, poorly fitted or top-dose-only effect; inactive = flat fitted curve, though single readings scatter. Some of the results follow.

Assay: Acumen qHTS Assay for Inhibitors of the mTORC1 Signaling Pathway in MEF (Tsc2-/-, p53-/-) Cells: Sytravon; also: nearly all actives have a fitted effect of over 50% in size;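 as to activity change, negative = inhibition: plate controls were DMSO for no effect and rapamycin for full effect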
Settings: phospho-rpS6 immunofluorescence/PI, 24 h; series mostly up to 38.3 µM; activity change, negative = inhibition: at the top concentration
In short: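 Cell-based qHTS: Tsc2-/- p53-/- MEF, 24 h cpd, 37 °C; fix/perm, anti-phospho-S6 Alexa-488 + PI; Acumen 488 nm scan; pS6/PI ratio, % positive cells; rapamycin 7.5 nM = inhibition ref; PI count = viability.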
Potency is read from the fitted curve at half-maximal effect.

Row | Compound | activity change, negative = inhibition | Potency
1 | O=C(CSc1nc2c([nH]c3ccccc32)c(=O)n1-c1cccc(Cl)c1)N1CCc2ccccc21 | inactive: 3.67% | –
2 | COc1cccc(Cc2nc3ccccc3nc2SCC(=O)N2CCCCC2C)c1 (centres undefined) | inactive: 1.15% | –
3 | Cc1ccc2nc(NCc3ccccc3Cl)c3nnnn3c2c1 | inactive: -17.1% | –
4 | COc1cccc(C(=O)CN2CCN(S(=O)(=O)c3ccc(Cl)cc3)CC2)c1 | inactive: 5.03% | –
5 | COc1cc2ccccc2cc1C(=O)Nc1ccc2oc(-c3cc(Br)ccc3Cl)nc2c1 | inactive: -3.25% | –
6 | CCOc1ccccc1NC(=O)c1sc2nc3c(cc2c1N)CN(Cc1ccccc1)CC3 | inactive: -15.1% | –
7 | O=C(CN1C(=O)CSc2ccc(S(=O)(=O)N3CCCCC3)cc21)NCc1ccc(F)cc1Cl | inactive: 0% | –
8 | O=C(NCc1ccco1)c1ccc2c(c1)N(Cc1ccc(F)cc1)C(=O)c1ccccc1S2=O (centres undefined) | inactive: -14.5% | –
9 | COc1cc(NC(=O)CCc2c(C)n(C)c3cc(-c4ccccc4C)nn3c2=O)cc(OC)c1OC | inactive: -0.588% | –
10 | CC(=O)c1ccc(NC(=O)Cn2c3ncccc3c(=O)n2-c2ccc(C)cc2)cc1 | inactive: -21% | –
11 | COc1ccc(NC(=O)c2cnc(SCC(=O)Nc3nc4ccc(C)cc4s3)n(C)c2=O)cc1 | inactive: 0.194% | –
12 | O=C(c1ccco1)c1cn(CCOc2ccc(Cl)cc2)c2ccccc12 | inactive: 2.94% | –
13 | Cc1ccc(-c2noc(CSc3nnc(-c4ccc(Cl)cc4)n3C)n2)cc1 | inactive: -0.282% | –
14 | Cc1cccc(C(=O)NCC(c2ccc3c(c2)OCO3)N2CCOCC2)c1 (centres undefined) | inactive: -5.37% | –
15 | O=C(c1cccs1)N1CCCc2cc(NS(=O)(=O)c3ccc(Cl)cc3)ccc21 | inactive: 0% | –
16 | COc1ccc(C(CNC(=O)c2ccc(C)cc2)N2CCOCC2)cc1 (centres undefined) | inactive: 0.742% | –
17 | CCC(=O)N1CCc2cc(CNC(=O)Nc3ccc(OC)cc3OC)ccc21 | inactive: -14.1% | –
18 | O=C(CSc1nccn1Cc1ccccc1)NC1CCCC1 | inactive: 6.54% | –
19 | Cc1cccc(-c2noc(-c3ccc(N4CCCC4)c([N+](=O)[O-])c3)n2)c1 | inactive: -0.0566% | –
20 | COc1ccc(NC(=O)C2CCN(S(=O)(=O)c3c(C)noc3/C=C/c3ccco3)CC2)cc1 | inactive: -2.04% | –
21 | CCN(C(=O)CN(C)S(=O)(=O)c1ccc2c(c1)n(C)c(=O)c(=O)n2C)c1cccc(C)c1 | inactive: -22.9% | –
22 | CCN(CC)C(=O)c1sc(NC(=O)C2c3ccccc3Oc3ccccc32)c(C(=O)OC(C)C)c1C | inactive: -1.46% | –
23 | CN(C)c1ccc(C(CNS(=O)(=O)c2cc(F)ccc2F)N2CCOCC2)cc1 (centres undefined) | inactive: 15.6% | –
24 | O=C(CSCc1ccc(F)cc1)N1CCN(c2ccccc2)CC1 | inactive: 7.78% | –

Row | Compound | activity change, negative = inhibition | Potency
25 | Cc1cc(C)c(Cn2c(=O)n(CCCCCC(=O)NCc3ccc4c(c3)OCO4)c(=O)c3sccc32)c(C)c1 | inactive: 0.084% | –
26 | COc1cccc(NC(=O)Cn2c(=O)n(-c3cccc(OC)c3)c(=O)c3c4c(sc32)CCCC4)c1 | inactive: -0.831% | –
27 | COc1ccc(NS(=O)(=O)c2ccc3[nH]c4c(c3c2)CCCC4)c(OC)c1 | inactive: -7.69% | –
28 | CCOc1ccc(Nc2nc3ccccc3c3nnc(CC)n23)cc1 | inactive: 0.542% | –
29 | Cc1ccc(CN(C(=O)c2ccccc2Br)C2CCS(=O)(=O)C2)o1 (centres undefined) | inactive: 0.637% | –
30 | CC1CCC(NC(=O)c2ccc3c(c2)N(Cc2cccc(Cl)c2)C(=O)c2ccccc2S3=O)CC1 (centres undefined) | inactive: -0.0113% | –
31 | O=C(NCc1ccc(Cl)cc1)C(=O)Nc1cccc(Br)c1 | inactive: -3.63% | –
32 | Cn1c(=O)c2c(SCC(=O)NCc3ccco3)nc(-c3ccccc3F)nc2n(C)c1=O | inactive: -0.983% | –
33 | CCOc1ccccc1NC(=O)COc1cccc2c(=O)n(CCOC)ccc12 | inactive: -5.45% | –
34 | COc1ccc(NC(=O)CC2C(=O)N(c3ccccc3)C(=O)N2Cc2cccnc2)cc1 (centres undefined) | inactive: -7.14% | –
35 | COc1cccc(-n2c(=O)c3c4c(sc3n(Cc3ccc(F)cc3Cl)c2=O)CCCC4)c1 | inactive: -2.53% | –
36 | O=C(CCCc1nc(-c2ccco2)no1)Nc1ccccc1[N+](=O)[O-] | inactive: -18.4% | –
37 | CCOC(=O)c1ccc(NC(=O)c2c(C)oc3nc(C)nc(N4CCCC4)c23)cc1 | inactive: 5.95% | –
38 | CC(=O)Nc1c(C(=O)Nc2cccc(C)c2)nnn1-c1ccc(C)cc1 | inactive: -6.15% | –
39 | CCC1CCCCN1S(=O)(=O)c1ccc(N2CCCCS2(=O)=O)cc1 (centres undefined) | inactive: 9.57% | –
40 | COc1ccc(-c2[nH]ncc2C(=O)NCc2cccc(F)c2)cc1 | inactive: -0.422% | –
41 | Cc1ccc(-n2nc(-c3ccc(F)cc3)c3cnc4cc5c(cc4c32)OCO5)cc1C | inactive: -14.8% | –
42 | CCc1ccc(NC(=O)CC(c2ccc(C)cc2)N2Cc3ccccc3C2=O)cc1 (centres undefined) | inactive: -0.313% | –
43 | COCCNC(=O)c1ccc2nc(CCc3ccccc3)oc2c1 | inactive: -4.54% | –
44 | Cc1ccc(Cl)cc1N1CCN(C(=O)CCSCc2ccccc2F)CC1 | inactive: 5.43% | –
45 | COc1ccc(NC(=O)c2oc3ccc(S(=O)(=O)N(C)C4CCCCC4)cc3c2C)cc1Cl | inactive: 1.96% | –
46 | CCc1ccc(-c2cc(C)no2)cc1S(=O)(=O)N1CCN(c2cccc(Cl)c2)CC1 | inactive: -16.2% | –
47 | Cc1c(C(=O)Nc2ccc(Br)cc2F)oc2ccc(S(=O)(=O)N3CCC4(CC3)OCCO4)cc12 | inactive: 6.19% | –
48 | Cc1ccc(CCNC(=O)c2sc3ncccc3c2-n2c(C)ccc2C)cc1 | inactive: -3.02% | –

Row | Compound | activity change, negative = inhibition | Potency
49 | CC1CCCCN1c1c(S(=O)(=O)c2ccc(Cl)cc2)cnc2ccccc12 (centres undefined) | inactive: -8.1% | –
50 | CCC(=O)Nc1ccc(CC)cc1-c1nc2ccccc2n(CC(=O)Nc2cccc(OC)c2)c1=O | inactive: -3.62% | –
51 | COc1cccc(C2=CC(c3ccccc3F)n3ncc(C(=O)Nc4ccc(C)cc4)c3N2)c1 (centres undefined) | inactive: -16.3% | –
52 | Cc1cc(C)cc(-n2ccnc(NCCc3ccccc3)c2=O)c1 | inactive: -0.342% | –
53 | COc1ccc(-c2nc(CS(=O)CC(=O)NCCc3ccccc3)c(C)o2)cc1OC (centres undefined) | inactive: 0.226% | –
54 | Cc1ccc(Cl)cc1-n1nnc(-c2nsc(NC(=O)c3ccccc3Cl)n2)c1C | inactive: 0.889% | –
55 | CCn1cc2nc(SCc3cccc(C(F)(F)F)c3)n(Cc3ccc(Cl)cc3)c(=O)c2n1 | inactive: -6.19% | –
56 | COc1ccc(OC)c(NC(=O)CCCc2nnc3n(C(C)C)c(=O)c4sccc4n23)c1 | inactive: -12.4% | –
57 | Cc1ccc2oc(C(=O)Nc3ccc(S(=O)(=O)N4CCCC(C)C4)cc3)cc(=O)c2c1 (centres undefined) | inactive: -2.7% | –
58 | CCc1ccc(-n2c(=O)c3ccccc3n(CC(=O)NCCc3ccc(OC)c(OC)c3)c2=O)cc1 | inactive: -4.02% | –
59 | COc1ccc(Cl)cc1NC(=O)NCCn1c(=O)oc2ccc(C)cc21 | inactive: -20.2% | –
60 | COc1ccc(C)cc1NC(=O)N1CCC(CN2CCOCC2)CC1 | inactive: -3.75% | –
61 | Cc1ccc(N(CC(=O)N2CCN(c3cccc(Cl)c3)CC2)S(=O)(=O)c2c(C)noc2C)cc1 | inactive: -8.29% | –
62 | Cc1ccc2cc3cc(C(=O)N4CCN(c5ccc(Cl)cc5)CC4)oc3nc2c1 | inactive: -0.89% | –
63 | Cc1ccccc1NC(=O)c1c(NC(=O)c2ccccc2)sc2c1CCC2 | inactive: 0.43% | –
64 | COc1ccc(-c2cn3nc(N4CCC(C(=O)Nc5ccccc5OC)CC4)sc3n2)cc1 | inactive: -11% | –
65 | CCN(CC)C(=O)c1sc2c(c1C)c(=O)n(-c1ccccc1)c(=O)n2Cc1c(C)cc(C)cc1C | inactive: -0.628% | –
66 | CCOc1ccc(NC(=O)CC2C(=O)N(c3ccccc3)C(=O)N2CCc2cccs2)cc1 (centres undefined) | inactive: -0.291% | –
67 | CC(C)C(NS(=O)(=O)c1ccc2c(c1)oc(=O)n2C)C(=O)N1CCN(c2cccc(Cl)c2)CC1 (centres undefined) | inactive: -2.75% | –
68 | CCN(CC)C(=O)c1ccc2c(c1)N(Cc1c(F)cccc1Cl)C(=O)c1ccccc1S2 | inactive: -0.443% | –
69 | Cc1ccn2c(Nc3c(C)cccc3C)c(-c3ccsc3)nc2c1 | inactive: -22.9% | –
70 | COc1ccc(NC(=O)C(Cc2c[nH]c3ccccc23)NC(=O)OC(C)(C)C)cc1 (centres undefined) | inactive: -12.7% | –
71 | COC(=O)Cn1c(=NC(=O)c2ccc3c(c2)OCCO3)sc2ccccc21 | inactive: -1.79% | –
72 | COc1ccc(N2CC(NC(=O)c3cccs3)CC2=O)cc1 (centres undefined) | inactive: -0.916% | –

Row | Compound | activity change, negative = inhibition | Potency
73 | O=C(CSc1nc(=O)[nH]c2c1CCCC2)Nc1ccc(Cl)c(Cl)c1 | inactive: -5.52% | –
74 | Cc1cc(N2CCN(C)CC2)nc2ccc(NC(=O)c3ccc(C(C)(C)C)cc3)cc12 | – | active: 5.85 µM
75 | CCN(CC)S(=O)(=O)c1ccc(NC(=O)c2cc3ccc4cccnc4c3[nH]2)cc1 | inactive: -8.67% | –
76 | Cc1ccc(-n2nc(C(=O)Nc3ccc(F)cc3Cl)c(=O)n(C)c2=O)cc1 | inactive: -0.347% | –
77 | CN(Cc1ccccc1)c1nnc(NC(=O)Nc2cccc(Br)c2)s1 | inactive: -6.3% | –
78 | Cc1ccc(C(=O)n2nc(C)c(S(=O)(=O)N3CCCCCC3)c2C)cc1C | inactive: -1.45% | –
79 | CCc1nnc(NC(=O)CSc2nccn2Cc2ccc(C)cc2)s1 | inactive: 2.3% | –
80 | COc1ccccc1NC(=O)CSc1nc(O)c(C/C=C/c2ccccc2)c(=O)[nH]1 | inactive: -6.46% | –
81 | COc1ccc(Cn2c(=O)n(-c3ccc(F)c(Cl)c3)c(=O)c3c2c2cc(OC)ccc2n3C)cc1 | inactive: 1.87% | –
82 | CCOC(=O)c1c(S(=O)(=O)N2CCC(C(=O)NCc3cccc(C)c3)CC2)c(C)n(C)c1C | inactive: -1.05% | –
83 | CCOc1cccc2sc(N3CCN(C(=O)c4ccc5c(c4)CCCC5)CC3)nc12 | inactive: 2.63% | –
84 | Cc1ccc(OCc2nc(-c3ccc(C(=O)NCCc4ccc(Cl)cc4)cc3)oc2C)cc1 | inactive: -0.345% | –
85 | CCCCc1ccc(NC(=O)c2cc(-c3ccc(C)c(F)c3)on2)cc1 | inactive: 3.16% | –
86 | Cn1c(=O)c2sccc2n2c(CCC(=O)N3CCN(c4ccc(F)cc4)CC3)nnc12 | inactive: -2.11% | –
87 | Cc1ccccc1CN1C(=O)c2ccccc2Sc2ccc(C(=O)NC3CCCCC3)cc21 | inactive: 3.82% | –
88 | COc1ccc(NC(=O)c2nn(C)c3c2CS(=O)(=O)c2ccccc2-3)cc1Cl | inactive: 1.2% | –
89 | COc1ccc(C2=C(Nc3ccc(Br)c(C)c3)c3ccccc3C2=O)cc1 | inactive: -29.1% | –
90 | CC(C)Nc1ccc(-c2nc(-c3ccncc3)no2)cc1[N+](=O)[O-] | inactive: 3.26% | –
91 | CCOC(=O)c1c(C)[nH]c(C)c1S(=O)(=O)N1CCCC(C(=O)N2CCN(c3ccccc3F)CC2)C1 (centres undefined) | inactive: -0.65% | –
92 | COc1ccc(N(CC(=O)NC(C)c2ccccc2)S(=O)(=O)c2c(C)nn(C)c2C)cc1 (centres undefined) | inactive: -0.557% | –
93 | COc1ccc(N2CCN(Cc3nc4c(c(=O)[nH]c(=O)n4C)n3Cc3ccc(C)cc3)CC2)cc1 | inactive: 1.34% | –
94 | CCc1nn(CC(=O)N2CCN(c3cccc(OC)c3)CC2)c(=O)c2cc3occc3n12 | inactive: 3.15% | –
